PubChem BioAssay AID488969 (Vanderbilt High Throughput Screening Facility, 2010)
Over roughly 110,000 compounds, “z-score” has its median near -0.1; the highest 2% begin near 2. This is one part of the list. The source made the active and inactive calls.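 Rule for the calls: active = z-score in the third read window above 3 or below -3; inactive = the rest.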

What follows are compounds tested against Metabotropic glutamate receptor 8 (Rattus norvegicus) (UniProt P70579) (assay: mGluR8 Gi/Go-coupled signaling modulation – cell-based, rat, thallium flux, HTS, primary screen (AID 488969)). Details: HEK293 rat mGluR8, GIRK (G protein-gated inwardly rectifying potassium channel) thallium flux, FluoZin2; at 10 µM; stronger effect = higher value.
Sequence of UniProt P70579 (P70579 whole entry, looked up): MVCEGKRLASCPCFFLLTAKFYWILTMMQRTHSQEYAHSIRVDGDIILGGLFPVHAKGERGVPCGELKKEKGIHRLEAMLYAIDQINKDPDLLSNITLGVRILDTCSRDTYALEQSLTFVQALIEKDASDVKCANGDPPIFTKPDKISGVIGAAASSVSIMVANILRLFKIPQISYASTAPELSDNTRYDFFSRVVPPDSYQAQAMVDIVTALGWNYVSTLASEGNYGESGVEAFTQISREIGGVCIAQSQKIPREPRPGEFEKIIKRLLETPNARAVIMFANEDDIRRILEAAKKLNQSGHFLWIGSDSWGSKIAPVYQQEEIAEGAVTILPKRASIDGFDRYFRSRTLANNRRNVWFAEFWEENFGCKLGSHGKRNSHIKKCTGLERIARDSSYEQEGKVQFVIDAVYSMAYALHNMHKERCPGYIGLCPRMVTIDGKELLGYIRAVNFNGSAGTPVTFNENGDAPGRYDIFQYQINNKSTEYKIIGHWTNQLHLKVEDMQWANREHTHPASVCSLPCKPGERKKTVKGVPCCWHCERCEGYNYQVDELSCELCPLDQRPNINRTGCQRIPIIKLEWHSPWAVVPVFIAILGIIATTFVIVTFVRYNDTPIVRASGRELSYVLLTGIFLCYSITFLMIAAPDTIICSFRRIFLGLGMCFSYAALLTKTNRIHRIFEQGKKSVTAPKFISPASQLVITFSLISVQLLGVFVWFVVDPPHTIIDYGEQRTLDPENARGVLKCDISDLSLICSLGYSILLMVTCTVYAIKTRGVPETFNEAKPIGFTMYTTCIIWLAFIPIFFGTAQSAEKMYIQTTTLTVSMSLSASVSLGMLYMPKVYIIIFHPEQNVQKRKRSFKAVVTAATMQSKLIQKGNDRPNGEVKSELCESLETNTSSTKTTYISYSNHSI
With `Cc1cccc(N2CCN(CCc3ccccc3)CC2)c1C` the z-score was 0.0162.
For `Nc1ccc(C2(c3ccc(N)cc3)CN3CCC2CC3)cc1`, the z-score was -0.105.
`O=C1N=c2ccccc2=C/C1=C\c1c(O)[nH]c(=S)[nH]c1=O` was tested, and the z-score was -0.815.
`COC(=O)CC1=C(C(=O)OC)C2(C(=O)Nc3c(C)cccc32)C(C#N)=C(N)O1` (configuration not stated) showed a z-score of -0.267.
With `Cn1c(O)c(C(c2ccncc2)c2c(O)n(C)c(=S)n(C)c2=O)c(=O)n(C)c1=S` the z-score was 0.225.
In the case of `COc1ccc(C(C)=O)cc1CC(C(=O)c1ccccc1)N(C)C` (configuration not stated), the z-score is reported as -0.686.
For `CC12CN3CC(C)(CN(C1)C3c1cccnc1)C2=O` (configuration not stated), the z-score was 0.227.
Work on `O=C(CN1C(=O)CN=C(c2ccccc2Cl)c2cc(Cl)ccc21)NCc1ccco1` yielded a z-score of 2.98.
For `CCN1CCN(C(=O)Cc2coc3cc(C)cc(C)c23)CC1`, the z-score was 0.139.
Compound `CCN1CCN(Cc2cc(Br)cc(OC)c2O)CC1` has a z-score of -0.164.
With `CSc1ncc(Cl)c(C(=O)O)n1` (tested in a mixture with another compound) the z-score was -0.123.
In the case of `O=c1[nH]c(=O)n(Cc2ccccc2)c(O)c1C=Nc1ccc(CN2CCOCC2)cc1`, the z-score is reported as -0.0494.
In the case of `CCCCn1c(O)c(C(CC)=NC(C)c2ccccc2)c(=O)[nH]c1=O` (configuration not stated), the z-score is reported as -0.813.
For `CN1CCN(c2ccc(S(=O)(=O)C(F)(F)F)cc2[N+](=O)[O-])CC1`, the z-score was -0.308.
Work on `Fc1ccccc1N1CCN(Cc2c(F)cccc2F)CC1` yielded a z-score of 0.122.
`CCCCCSc1cc(OC)c(CCNC)cc1OC` showed a z-score of 0.115.
Compound `CC(C)NC(C)C(=O)C12CC3CC(CC(C3)C1)C2` (configuration not stated) has a z-score of 0.115.
In the case of `O=C(N/N=C1/CN2CCC1CC2)c1cc2ccccc2cc1O`, the z-score is reported as 0.139.
With `CNC(=O)OCCc1nccn1C` the z-score was active: 3.02.
Work on `O=C1NC(=O)C(=Cc2ccc(OCC(=O)N3CCOCC3)cc2)C(=O)N1` yielded a z-score of -0.179.
For `CCOC(=O)c1sc(N=Nc2c(O)[nH]c(=O)[nH]c2=O)c(C(=O)OCC)c1C`, the z-score was -0.194.
Compound `CN1CCN(c2ccc(N)c(N3CCN(C)CC3)c2)CC1` has a z-score of -0.575.
Work on `CN1CCN(c2ccc(C=O)cc2)CC1` yielded a z-score of 0.242.
`COc1ccc(CCn2c(O)c(/C=N/N3CCCCC3)c(=O)[nH]c2=O)cc1OC` was tested, and the z-score was 0.0321.
For `CCCNC(=O)N1C2CCC1CC(O)(c1cccnc1)C2` (configuration not stated), the z-score was 0.154.
`CC1(C)CN=C(NCc2ccccc2Cl)S1` gave a z-score of 1.62.
Work on `O=C(Nc1ccc(Cl)cc1)O/N=C(\c1ccccc1)c1ccccn1` yielded a z-score of -0.375.
In the case of `CCCCCCC(=O)c1c(O)n(-c2ccccc2OC)c(=O)[nH]c1=O`, the z-score is reported as 0.949.
With `Cn1ccnc1P(=S)(c1nccn1C)c1nccn1C` the z-score was 0.528.
Compound `FC(F)(F)c1ccc2c(c1)N(CCCN1CCN(CCCl)CC1)c1ccccc1S2` has a z-score of -0.54.
For `Cc1c(Cl)cccc1NC(=S)N1CC2CC(C1)c1cccc(=O)n1C2` (configuration not stated), the z-score was -0.341.
Compound `COc1ccc(/C=C/C(=O)c2c(O)n(CCC3=CCCCC3)c(=O)[nH]c2=O)cc1` has a z-score of -0.436.
Work on `Cc1cccc(-n2c(O)c(C=NCCCN3CCOCC3)c(=O)[nH]c2=O)c1C` yielded a z-score of 0.107.
Work on `COc1cc(/C=N/NC(=O)Cn2c([N+](=O)[O-])cnc2C)ccc1OC(=O)N(C)C` yielded a z-score of -0.315.
For `O=C1CN=C(c2ccccc2)c2cc(Br)ccc2N1Cc1cc(=O)n2ccccc2n1`, the z-score was -0.21.
In the case of `C=CCn1c(O)c(C(C)=NCc2cccnc2)c(=O)[nH]c1=O`, the z-score is reported as 0.323.
`CC(CO)(CO)N=Cc1c(O)n(-c2cccc3ccccc23)c(=O)[nH]c1=O` showed a z-score of -0.583.
For `COc1ccccc1C1=NCc2nnc(C)n2-c2ccc(Cl)cc21`, the z-score was 0.478.
Compound `CC1(C)CC(=O)C(C=NCCN2CCN(C(=O)Cc3ccccc3)CC2)=C(O)C1` has a z-score of -0.0124.
With `O=c1[nH]c(=S)n(-c2ccc(Br)cc2)c(O)c1C=Nc1ccc(N2CCOCC2)cc1` the z-score was -0.456.
For `CCCCn1c(O)c(/C=C/C=Nc2ccccc2)c(=O)[nH]c1=O`, the z-score was -2.18.
Compound `C=CCN1C(=O)NC(=O)/C(=C/c2cc3c4c(c2)CCCN4CCC3)C1=O` has a z-score of -0.594.
`CNC(=O)Oc1ccc2c(c1)C(=O)c1ccccc1CO2` gave a z-score of -0.329.
For `O=[N+]([O-])c1ccc(N2CCCC2)c(F)c1Br`, the z-score was -1.46.
For `Cc1ccc2c(c1)C1CN(C)CCC1N2C(=O)Nc1cccc(Cl)c1` (configuration not stated), the z-score was 1.44.
With `COc1ccc(CC2C(=O)NC(=O)NC2=O)c(OC)c1` the z-score was active: 13.6.
With `CN(C)CCCN=Cc1c(O)n(CCc2ccccc2)c(=O)[nH]c1=O` the z-score was 0.135.
`O=C(Nc1ccc(Cl)cc1C(=O)c1ccccc1)c1ccco1` gave a z-score of -0.412.
Compound `CCN1C(=O)c2ccccc2Sc2ccc(C(=O)N3CCC4(CC3)OCCO4)cc21` has a z-score of -0.937.
With `COc1ccc(CC2C(=O)N(c3ccccc3)C(=O)N(c3ccccc3)C2=O)c(OC)c1` the z-score was -0.0175.
Compound `CCOC(=O)c1c(C)n(CCOC)c2ccc(O)cc12` has a z-score of 0.821.
`CCCCC(=O)N/N=C/c1c(O)n(Cc2ccco2)c(=O)[nH]c1=O` was tested, and the z-score was -0.0422.
Work on `CC12CN3C(O)C(C)(C1)CC(C)(C2)C3O` (configuration not stated) yielded a z-score of -0.0787.
Work on `CN(C)CCc1nn[nH]n1` yielded a z-score of 0.148.
`CC(=O)C1(c2ccccc2)CCNCC1` gave a z-score of 0.3.
Compound `CC1CCC(NCCc2ccc3c(c2)OCO3)CC1` (configuration not stated) has a z-score of 0.00241.
`O=C(c1ccccc1)c1cn(CC(=O)N2CCCc3ccccc32)c2ccccc12` showed a z-score of -1.09.
